The source of these data is publication PMC3498381, “Isolated Toll-like Receptor Transmembrane Domains Are Capable of Oligomerization” (PLoS ONE, 2012).

Assay [1] concerns the target TLR2 transmembrane domain G593V (ToxR chimera) (human) (UniProt O60603). Kind of assay: ToxR reporter assay; homotypic; MBP-TMD-ToxR chimera in the membrane of E. coli FHK12; β-galactosidase activity (Miller units) normalised to the GpA signal and to expression levels. A general note: A reporter such as luciferase makes a cellular process visible.
In assay [2] the target is TLR2 transmembrane domain A597V (ToxR chimera) (human) (UniProt O60603). The description is as above.
Assay [3] deals with TLR2 transmembrane domain C609I (ToxR chimera) (human) (UniProt O60603). The description is as above.
Assay [4] concerns the target T1, TLR1 transmembrane domain (ToxR chimera) (human).
T1 sequence: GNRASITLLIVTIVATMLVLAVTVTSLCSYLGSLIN
Kind of assay: dominant-negative ToxR reporter assay; heterotypic; one TMD with functional ToxR (dominant phenotype) and one with non-functional ToxR* (negative phenotype) co-expressed in E. coli FHK12; interaction read as reduction of β-galactosidase signal; normalised to poly-Leu* and to expression ….

Assay [5] addresses T2, TLR6 transmembrane domain (ToxR chimera) (human).
T2 sequence: T1 sequence with V14G, S29I
The description is as above.

The target in assay [6] is T3, TLR2 transmembrane domain (ToxR chimera) (human).
T3 sequence: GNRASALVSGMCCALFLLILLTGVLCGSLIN
The description is as above.

Assay [7] has as its target TLR5 transmembrane domain (ToxR chimera) (human). Kind of assay: ToxR reporter assay; homotypic; MBP-TMD-ToxR chimera in the membrane of E. coli FHK12; β-galactosidase activity (Miller units) normalised to the GpA signal and to expression levels.
Assay [8] concerns the target T1, TLR1 transmembrane domain (ToxR chimera) (human). The description is as above.
Assay [9] deals with T2, TLR6 transmembrane domain (ToxR chimera) (human). The assay is described as above.
Assay [10] deals with TLR10 transmembrane domain (ToxR chimera) (human). The description is as above.
For assay [11], the target named is TLR3 transmembrane domain (ToxR chimera) (human). The description is as above.
Assay [12] concerns the target T3, TLR2 transmembrane domain (ToxR chimera) (human). Described as above.
Assay [13] has as its target TLR8 transmembrane domain (ToxR chimera) (human). The assay is described as above.
For assay [14], the target named is TLR4 transmembrane domain (ToxR chimera) (human). The assay is described as above.

Where a chain is given by its changes, count along the chain named. No constants are given. Whether binding was seen depends on the method and setting. Some binding calls cover weakened binding; strength is not graded here.

Consider “TLR2 transmembrane domain G593V (ToxR chimera) (from UniProt O60603 589-609) (domain or fragment)”, for which the binding entry in assay [1] is “binds”.
With “TLR2 transmembrane domain A597V (ToxR chimera) (from UniProt O60603 589-609) (domain or fragment)”, the binding result in assay [2] is on record as “binds”.
Take “TLR2 transmembrane domain C609I (ToxR chimera) (from UniProt O60603 589-609) (domain or fragment)”: in assay [3], the binding result was “binds”.

B1: TLR5 transmembrane domain (ToxR chimera) (domain or fragment)
chain: GNRASFSLFIVCTVTLTLFLMTILTVTGSLIN
Regarding B1, the binding entry in assay [4] was “binds weakly”; in assay [5], “binds weakly”; in assay [6] it was “binds weakly”; in assay [7] it was “binds”.

B2: TLR1 transmembrane domain (ToxR chimera) (domain or fragment)
chain: T1 sequence
notes: flank encoded by the reading frame of the plasmid construct; Toll-like receptor 1 transmembrane domain, human, as identified by hydrophobic analysis; One molecule for the ToxR and the ToxR* form of this TMD; also called TLR1 TMD; source: E. coli FHK12, transformed with pTox7 or pTox6 plasmid, in the cells' membrane
Turning to B2, the binding entry in [4] and in assay [8] was “binds” throughout.

B3: TLR6 transmembrane domain (ToxR chimera) (domain or fragment)
chain: T1 sequence with V14G, S29I
notes: flank encoded by the reading frame of the plasmid construct; Toll-like receptor 6 transmembrane domain, human, as identified by hydrophobic analysis; One molecule for the ToxR and the ToxR* form of this TMD; also called TLR6 TMD; source: E. coli FHK12, transformed with pTox7 or pTox6 plasmid, in the cells' membrane
For B3, the binding entry in assay [5] and in assay [9] was “binds” each time.

B4: TLR10 transmembrane domain (ToxR chimera) (domain or fragment, human)
chain: GNRASALLIVTIVVIMLVLGLAVAFCCLGSLIN
notes: flank encoded by the reading frame of the plasmid construct; Toll-like receptor 10 transmembrane domain, human, as identified by hydrophobic analysis; One molecule for the ToxR and the ToxR* form of this TMD; also called TLR10 TMD; source: E. coli FHK12, transformed with pTox7 or pTox6 plasmid, in the cells' membrane
B4: in [10], the binding entry is “binds”.

B5: TLR3 transmembrane domain (ToxR chimera) (domain or fragment)
chain: GNRASLFFMINTSILLIFIFIVLLIHFGSLIN
With B5, the binding result in assay [11] is “binds”.

B6: TLR2 transmembrane domain (ToxR chimera) (domain or fragment)
chain: T3 sequence
notes: flank encoded by the reading frame of the plasmid construct; Toll-like receptor 2 transmembrane domain, human, as identified by hydrophobic analysis; One molecule for the ToxR and the ToxR* form of this TMD; also called TLR2 TMD; wild type TLR2 TMD; source: E. coli FHK12, transformed with pTox7 or pTox6 plasmid, in the cells' membrane
For B6, the binding entry in [6] and in assay [12] was “binds” throughout.

B7: TLR8 transmembrane domain (ToxR chimera) (domain or fragment)
chain: GNRASVTAVILFFFTFFITTMVMLAALAGSLIN
For B7, the binding entry in assay [13] was “binds”.

B8: TLR4 transmembrane domain (ToxR chimera) (domain or fragment)
chain: GNRASTIIGVSVLVVSVVAVLVYKFYFGSLIN
On to B8, for which the binding entry in [4] is on record as “no binding”; in [5], “no binding”; in assay [6] it was “no binding”; in [14], “binds”.
